# From the supplement of paper PMC7826260
# The list shows a part of the results. Viral Rep nickase domains cut single-stranded DNA in vitro (3 µM enzyme, 1 h, 37 °C); shown is the middle of each 90-letter strand. The score is log2 (uncut reads / reads without enzyme); the lower, the more was cut; hits are not called. Because reads are shares of a total, they shift together; uncut strands gain when others are lost, and binding without cutting may add a little.
# Experiments:
# Assay in all cases: uncleaved DNA left, log2 of reads against the no-enzyme library (log2 ratio); higher = less cleavage (more negative = more Rep cleavage of the k-mer); sequences stand for … in CTCGTCCG…ACCGGAGA
# [1] = tested on: T1, Rep nickase domain of Muscovy duck circovirus
# T1 sequence (protein, residues 1-111, tag omitted): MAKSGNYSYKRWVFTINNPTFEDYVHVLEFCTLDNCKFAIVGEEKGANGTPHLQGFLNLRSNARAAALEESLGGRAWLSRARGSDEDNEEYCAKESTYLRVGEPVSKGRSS
# Protocol: (§1)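 A pool of 90-nt single-stranded DNAs with seven random bases just before the constant AC of the nick site (name = the seven bases) was cut by 3 µM recombinant His6-SUMO-tagged Rep nickase domain (300 nM DNA, 50 mM HEPES pH 8.0, 50 mM NaCl, 1 mM MnCl2, 1 h, 37 °C, three replicates). Uncut DNA was amplified and sequenced.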
# [2] = tested on: T2, Rep nickase domain of banana bunchy top virus
# T2 sequence (protein, residues 1-94, tag omitted): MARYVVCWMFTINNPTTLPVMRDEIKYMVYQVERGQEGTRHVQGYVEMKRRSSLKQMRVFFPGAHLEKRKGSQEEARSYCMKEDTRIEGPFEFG
# Protocol: as §1
# [3] = tested on: T3, Rep nickase domain of cabbage leaf curl virus
# T3 sequence (protein, residues 1-116, tag omitted): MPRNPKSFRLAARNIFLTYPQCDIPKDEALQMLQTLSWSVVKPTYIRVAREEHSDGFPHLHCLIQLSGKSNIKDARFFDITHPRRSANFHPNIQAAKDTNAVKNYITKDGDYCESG
# Protocol: as §1
# [4] = tested on: T4, Rep nickase domain of chickpea chlorotic dwarf virus
# T4 sequence (protein, residues 1-124, tag omitted): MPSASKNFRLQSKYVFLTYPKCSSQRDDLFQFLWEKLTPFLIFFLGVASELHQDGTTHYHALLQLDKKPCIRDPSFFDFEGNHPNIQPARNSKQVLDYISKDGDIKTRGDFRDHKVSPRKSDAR
# Protocol: as §1
# [5] = tested on: T5, Rep nickase domain of faba bean necrotic yellows virus
# T5 sequence (protein, residues 1-98, tag omitted): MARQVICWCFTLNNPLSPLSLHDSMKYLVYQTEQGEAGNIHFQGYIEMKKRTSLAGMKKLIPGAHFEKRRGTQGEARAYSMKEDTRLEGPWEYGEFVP
# Protocol: as §1
# [6] = tested on: T6, Rep nickase domain of maize striate mosaic virus
# T6 sequence (protein, residues 1-117, tag omitted): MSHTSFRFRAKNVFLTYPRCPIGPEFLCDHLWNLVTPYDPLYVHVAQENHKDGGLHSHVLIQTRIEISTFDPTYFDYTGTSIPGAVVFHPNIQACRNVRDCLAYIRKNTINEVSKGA
# Protocol: as §1
# [7] = tested on: T7, Rep nickase domain of porcine circovirus 2
# T7 sequence (protein, residues 2-116, tag omitted): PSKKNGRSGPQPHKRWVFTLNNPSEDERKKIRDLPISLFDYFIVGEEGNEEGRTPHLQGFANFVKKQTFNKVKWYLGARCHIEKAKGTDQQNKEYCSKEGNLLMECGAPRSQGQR
# Protocol: as §1
# [8] = tested on: T8, Rep nickase domain of tomato yellow leaf curl virus
# T8 sequence (protein, residues 1-136, tag omitted): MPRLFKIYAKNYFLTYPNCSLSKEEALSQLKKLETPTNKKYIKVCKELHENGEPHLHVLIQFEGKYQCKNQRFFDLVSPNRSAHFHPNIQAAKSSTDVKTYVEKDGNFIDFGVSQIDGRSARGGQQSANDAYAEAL
# Protocol: as §1
# [9] = tested on: T9, Rep nickase domain of wheat dwarf virus
# T9 sequence (protein, residues 1-137, tag omitted): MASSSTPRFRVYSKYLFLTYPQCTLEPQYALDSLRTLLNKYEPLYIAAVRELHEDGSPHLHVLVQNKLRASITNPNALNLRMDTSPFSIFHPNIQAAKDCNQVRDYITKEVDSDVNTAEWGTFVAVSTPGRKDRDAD
# Protocol: as §1
Sequence,uncleaved DNA left (log2) [1],uncleaved DNA left (log2) [2],uncleaved DNA left (log2) [3],uncleaved DNA left (log2) [4],uncleaved DNA left (log2) [5],uncleaved DNA left (log2) [6],uncleaved DNA left (log2) [7],uncleaved DNA left (log2) [8],uncleaved DNA left (log2) [9]
CCTGGGA,-0.0866,-0.27,0.0515,0.16,-0.185,-0.108,-0.0537,-0.107,-0.157
CAATCTA,0.0707,0.144,-1.81,-2.85,0.0143,-1.07,-0.599,0.189,-0.463
CTCTAGA,0.0133,0.0572,-0.189,-0.287,0.0254,-0.892,0.0869,-0.0061,-0.0422
TAAGTCC,0.046,-0.0391,-0.0444,-2.26,0.0226,0.0748,-0.046,0.0498,-0.302
TACCTGG,0.132,0.0893,0.232,0.332,0.0724,0.00523,0.0574,0.0966,0.23
GGTGCGC,0.116,-0.137,-0.196,0.262,0.0895,-0.145,0.0873,-0.0159,0.0431
ATAACCC,-0.307,-0.197,-0.413,-1.54,-0.0866,-0.644,-0.958,-0.219,-0.091
AAGGCCA,0.0546,0.148,0.0451,-0.202,-0.0181,0.331,-0.127,0.0947,0.0386
TGGAATG,0.0434,0.00933,-0.0167,0.383,0.0285,0.514,0.00116,0.0379,0.113
GCGATTT,0.205,0.149,0.183,0.301,0.123,1.35,0.0592,0.106,0.226
ACAGGAA,0.0544,-0.0709,0.0631,0.774,-0.0523,0.248,0.137,-0.0418,0.07
AACCCCT,-0.11,-0.0594,-0.512,-2.75,0.0272,-0.391,-0.948,0.0429,-0.133
AGGGCTG,-0.0203,-0.0209,0.186,0.873,0.00454,1.83,0.225,-0.191,-0.0787
TACGTGA,0.201,-0.123,-0.0785,-0.698,0.104,-0.831,0.00373,-0.0511,-0.105
TTCATTA,-0.153,-0.149,0.0564,-0.796,-0.0834,-0.297,-0.272,-0.206,-0.0758
AACCTCG,0.0893,0.05,-0.935,-0.623,0.167,-1.18,-0.19,0.00722,-0.0249
CTCAAAC,0.131,0.0701,0.0519,-0.403,-0.00538,-0.725,0.103,0.00116,0.0105
ATCCGAT,-0.128,-0.0575,0.181,0.6,-0.0446,0.457,-0.0217,-0.0216,0.0523
TTATACA,-0.11,0.106,0.0729,-1.83,0.0661,0.101,-0.299,0.0627,0.0819
GTCAGAT,0.0826,-0.0335,0.319,0.908,0.00498,1.67,0.182,0.0827,0.0864
ACGTGTC,-0.057,-0.204,-0.279,-0.209,-0.167,-0.642,-0.0268,-0.102,-0.128
ACTTGCA,0.0561,0.025,-0.589,-0.279,0.098,-0.811,0.121,0.159,-0.0284
CGTATTC,-0.037,-0.164,0.00229,-0.0993,-0.0895,-0.633,0.0425,-0.0813,0.0283
CTGATCA,0.0428,0.0734,0.217,-0.0636,0.0185,0.281,0.0484,0.0342,0.0714
GTGGCAA,-0.0905,0.124,0.686,1.55,0.00354,2.14,0.201,0.12,0.114
CGTCCTG,-0.101,-0.11,-0.0921,0.405,-0.0792,1.01,-0.0549,-0.0741,0.0398
TATCCGC,-0.0823,-0.164,-0.443,-0.677,-0.08,-1.17,0.0358,-0.0425,-0.0803
TTCTATC,-0.0479,-0.0219,0.204,0.0558,-0.151,-0.333,0.0445,0.024,0.0772
GTAGGGC,0.0791,0.121,0.564,1.23,0.0929,1.4,0.139,-0.051,0.114
GGCGATT,0.068,-0.102,0.202,0.873,-0.0481,1.7,0.0759,0.0138,0.00386
